Experimental data published in PubChem BioAssay AID504332 (National Center for Advancing Translational Sciences (NCATS), 2011).
Hit rate of the full screen: of about 350,000 compounds, about 31,000 (8.9%) were called active. Inconclusive results, whose numbers are uncertain, are shown with a selection of clear calls. The call rests on the fitted dose curve; in most records, active means well fitted inhibition curve with a large enough effect; inconclusive means small, poorly fitted or top-dose-only effect; inactive means no such curve, though single readings can be large or run the other way. Potencies beside an inconclusive call are fits to weak or partial responses and may not hold up.

The compounds below were run against Histone-lysine N-methyltransferase EHMT2 (Homo sapiens) (UniProt Q96KQ7) (assay: qHTS Assay for Inhibitors of Histone Lysine Methyltransferase G9a). Details: G9a H3K9 monomethylation, AlphaScreen, 2 h; activity, negative = inhibition: at 59 µM (top of the series) unless noted.
Chain of UniProt Q96KQ7 (Q96KQ7 whole entry, looked up): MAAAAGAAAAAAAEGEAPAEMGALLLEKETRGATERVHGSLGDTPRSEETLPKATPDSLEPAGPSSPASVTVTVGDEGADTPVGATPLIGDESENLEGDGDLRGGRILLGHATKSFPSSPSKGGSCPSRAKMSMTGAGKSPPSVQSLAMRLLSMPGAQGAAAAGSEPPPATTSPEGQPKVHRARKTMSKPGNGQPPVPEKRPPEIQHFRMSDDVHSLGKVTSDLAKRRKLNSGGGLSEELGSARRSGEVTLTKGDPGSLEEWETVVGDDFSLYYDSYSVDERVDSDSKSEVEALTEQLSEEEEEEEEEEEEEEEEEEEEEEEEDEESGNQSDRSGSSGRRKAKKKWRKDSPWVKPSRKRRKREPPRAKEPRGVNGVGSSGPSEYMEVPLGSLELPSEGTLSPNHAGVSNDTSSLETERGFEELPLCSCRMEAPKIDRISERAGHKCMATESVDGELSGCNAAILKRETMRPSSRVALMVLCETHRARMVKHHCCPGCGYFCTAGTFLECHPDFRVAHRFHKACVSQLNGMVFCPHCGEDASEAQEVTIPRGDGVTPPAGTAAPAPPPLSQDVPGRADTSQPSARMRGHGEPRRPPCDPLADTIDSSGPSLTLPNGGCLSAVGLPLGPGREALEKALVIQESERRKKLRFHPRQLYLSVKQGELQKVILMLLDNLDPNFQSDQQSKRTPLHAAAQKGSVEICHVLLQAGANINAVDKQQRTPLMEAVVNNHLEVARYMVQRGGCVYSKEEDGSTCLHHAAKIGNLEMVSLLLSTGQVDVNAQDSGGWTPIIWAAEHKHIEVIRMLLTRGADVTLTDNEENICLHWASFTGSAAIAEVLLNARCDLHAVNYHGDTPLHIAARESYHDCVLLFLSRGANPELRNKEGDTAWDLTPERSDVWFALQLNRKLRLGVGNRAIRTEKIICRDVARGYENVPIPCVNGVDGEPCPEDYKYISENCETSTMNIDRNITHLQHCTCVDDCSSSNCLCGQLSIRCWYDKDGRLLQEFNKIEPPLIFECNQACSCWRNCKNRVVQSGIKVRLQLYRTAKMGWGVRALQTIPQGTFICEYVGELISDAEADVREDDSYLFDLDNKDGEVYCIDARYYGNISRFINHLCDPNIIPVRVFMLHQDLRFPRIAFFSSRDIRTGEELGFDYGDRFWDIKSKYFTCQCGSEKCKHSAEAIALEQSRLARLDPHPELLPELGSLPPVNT
Outline: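 G9a (20 nM) was preincubated 15 min with compound, then reacted 2 h at room temperature with 500 nM biotin-H3K9 peptide and 20 µM SAM. Monomethyl-H3K9 detected by AlphaScreen using anti-H3K9me1 antibody.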
Further: nearly all actives have a fitted effect of over 75% in size.
On the % scale 0 is the no-effect control and ±100 the full control effect; potency means the concentration at half of the fitted maximal effect; tags describe the fitted curve by direction and shape.

Q: For `COc1ccc(C2Nc3ccccc3C(=O)N2NS(=O)(=O)c2ccccc2)c(OC)c1` (stereo not drawn), which “activity, negative = inhibition” value is on record?
A: Its value is inactive: -0.694% [at 102 µM].

Q: Which activity, negative = inhibition does the source give for `CNc1oc(-c2ccc(C)cc2)nc1P(=O)(c1ccccc1)c1ccccc1` here?
A: The activity, negative = inhibition was inactive: 1.47% [at 12.7 µM].

Q: How did the Potency turn out when `NC(=O)[C@@H]1CCCN1Cc1c(C(=O)N2CCN(C3CCCCC3)CC2)nc2ccccn12` was run?
A: Its Potency is inconclusive: 63.1 µM [inhibitor, single point].

Q: With `O=C(c1ccc2c(c1)N(Cc1ccccc1)C(=O)c1ccccc1S2(=O)=O)N1CCCC1` as the compound, how does the “activity, negative = inhibition” value read?
A: The value was inactive: -26.6%.

Q: Which Potency does the source give for `O=C(CC(NC(=O)c1ccccc1)c1ccccc1)Nc1cccc2ccccc12` (stereo not drawn) here?
A: Its Potency is inconclusive: 22.4 µM [inhibitor, single point].

Q: Which “activity, negative = inhibition” value does the source give for `Cc1ccccc1C(=O)NCCCn1ccnc1` here?
A: Its value is inactive: 16.9% [at 102 µM].

Q: How did the Potency turn out when `CC(C)(C)C(=O)NC(=S)NNC(=O)c1sc2ccccc2c1Cl` was run?
A: Its Potency is inconclusive: 39.8 µM [inhibitor, single point].

Q: For `Cc1cc(Cc2ccc(N)c(C)c2)ccc1N`, which Potency is on record?
A: Its Potency is inconclusive: 50.1 µM [inhibitor, partial curve].

Q: `CN(C)c1ccc(C(=O)/C=C/c2ccc(Br)cc2)cc1` was tested. Which Potency did it give?
A: Its Potency is inconclusive: 0.631 µM [inhibitor, full curve, poor fit].

Q: `CCN(CC)CCN(C(=O)c1ccc(C(=O)c2ccccc2)cc1)c1nc2cc3c(cc2s1)OCO3` was tested. Which Potency did it give?
A: The Potency was active: 39.8 µM.

Q: How did the Potency turn out when `CN(C)CCCN(C(=O)c1ccco1)c1nc2c(F)cccc2s1` was run?
A: Its Potency is inconclusive: 35.5 µM [inhibitor, partial curve].

Q: For `O=[N+]([O-])c1ccccc1S(=O)(=O)N1CCCCC1`, which “activity, negative = inhibition” value is on record?
A: Its value is inactive: 13.8%.

Q: With `Cc1ccc(C)c(N2CCN(C(=O)Nc3cn(CC(C)C)c(=O)c4ccccc34)CC2)c1` as the compound, how does the Potency read?
A: Its Potency is inconclusive: 14.1 µM [inhibitor, partial curve, poor fit].

Q: With `Cn1c2ccc(CC(=O)O)cc2c2cc(CC(=O)O)ccc21` as the compound, how does the Potency read?
A: The Potency was active: 50.1 µM.

Q: With `Cn1nccc1C(=O)Nc1ccc(OC(=O)c2ccnn2C)cc1` as the compound, how does the Potency read?
A: The Potency was active: 1.58 µM.

Q: Which “activity, negative = inhibition” value does the source give for `COCCNC(=O)/C(C#N)=C/c1ccc(OC(=O)c2cccs2)c(OC)c1` here?
A: The value was inactive: -31% [at 102 µM].

Q: For `COC(=O)CSc1nc2ccccc2nc1SCC(=O)OC`, which Potency is on record?
A: The Potency was inconclusive: 31.6 µM [inhibitor, single point].

Q: Which Potency does the source give for `O=c1cc(CO)oc(C(Nc2ccccn2)c2ccc(C(F)(F)F)cc2)c1O` (stereo not drawn) here?
A: Its Potency is active: 1.58 µM.

Q: Which Potency does the source give for `O=c1[nH]c2ccccc2c(O)c1-[n+]1ccccc1` here?
A: The Potency was inconclusive: 44.7 µM [inhibitor, partial curve].

Q: Which Potency does the source give for `CC(C)Cn1c(-c2ccc(F)cc2)n[nH]c1=S` here?
A: The Potency was inconclusive: 3.16 µM [inhibitor, partial curve, poor fit].

Q: For `O=C1CN(C(=O)COc2ccccc2F)c2ccccc2N1`, which Potency is on record?
A: The Potency was active: 50.1 µM.

Q: `Clc1ccc(Cn2ncc3c(N4CCCC4)ncnc32)cc1` was tested. Which Potency did it give?
A: The Potency was inconclusive: 0.794 µM [inhibitor, partial curve, poor fit].

Q: With `CCN(CC)c1ccc(/C=C2\CCC(/C=C(\C#N)C(=O)Nc3ccccc3F)=C2N2CCOCC2)cc1` as the compound, how does the Potency read?
A: Its Potency is inconclusive: 1.12 µM [inhibitor, partial curve, poor fit].

Q: Which Potency does the source give for `CC(=Nc1ccc(C)cc1)c1sc2ccccc2c1O` here?
A: The Potency was inconclusive: 56.2 µM [inhibitor, single point].

Q: Which Potency does the source give for `CCOc1ccc(NC(=S)N(CCc2c(C)[nH]c3ccc(C)cc23)Cc2ccncc2)cc1` here?
A: Its Potency is active: 39.8 µM.

Q: Which “activity, negative = inhibition” value does the source give for `CCOC(=O)N1CCN(Cc2nc3cc(NC(C)=O)ccc3n2C(C)C)CC1` here?
A: The value was inactive: -48.1%.

Q: `Cc1ccc(Cn2c(SCCN3CCCCC3)nc3c2c(=O)[nH]c(=O)n3C)cc1` was tested. Which Potency did it give?
A: Its Potency is active: 25.1 µM.

Q: Which Potency does the source give for `Cc1cccc2cc3c(N)c(C(=O)Nc4ccc(N5CCOCC5)cc4)sc3nc12` here?
A: The Potency was inconclusive: 56.2 µM [inhibitor, single point].

Q: With `COc1cc(OC)cc(C2=NC3(CCC(C)CC3)NC2=S)c1` (stereo not drawn) as the compound, how does the Potency read?
A: The Potency was inconclusive: 79.4 µM [inhibitor, single point].

Q: Which Potency does the source give for `CCc1c(C)c2c(C)nn(-c3ccccc3)c2[nH]c1=O` here?
A: The Potency was inconclusive: 70.8 µM [inhibitor, partial curve, poor fit].

Q: Which activity, negative = inhibition does the source give for `CCOc1ccc(CCNC(=O)c2sc3nc4n(c(=O)c3c2C)CCC4)cc1OCC` here?
A: Its activity, negative = inhibition is inactive: -9.78% [at 12.7 µM].

Q: Which Potency does the source give for `COc1cc(O)sc1C=Nc1ccc(Cl)cc1` here?
A: The Potency was inconclusive: 28.2 µM [inhibitor, full curve].

Q: How did the Potency turn out when `CN1C(=O)/C(=C/c2ccc(OCc3cccc(F)c3)cc2)NC1=S` was run?
A: The Potency was inconclusive: 0.316 µM [inhibitor, partial curve, poor fit].

Q: `O=C(COC(=O)c1ccccn1)NCc1cccs1` was tested. Which activity, negative = inhibition did it give?
A: The activity, negative = inhibition was inactive: 13.2% [at 2.33 µM].

Q: How did the Potency turn out when `c1cc2c3c(cccc3c1)C(N1CCCCCC1)=N2` was run?
A: Its Potency is inconclusive: 56.2 µM [inhibitor, partial curve, poor fit].

Q: With `CCc1ccc(OCC(=O)NC(=S)Nc2ccc(C(=O)O)cc2)cc1` as the compound, how does the Potency read?
A: The Potency was inconclusive: 50.1 µM [inhibitor, partial curve, poor fit].

Q: For `Cc1ccc(C)c(OCCCN2CCCC2)c1`, which Potency is on record?
A: Its Potency is inconclusive: 3.16 µM [inhibitor, partial curve, poor fit].

Q: With `O=C(CSc1ccc2ccccc2n1)NCc1ccc2c(c1)OCO2` as the compound, how does the Potency read?
A: The Potency was inconclusive: 89.1 µM [inhibitor, partial curve, poor fit].

Q: For `CCOC(=O)CSc1nc2c(c(=O)n(C)c(=O)n2C)n1Cc1ccccc1F`, which “activity, negative = inhibition” value is on record?
A: The value was inactive: 2.47% [at 102 µM].

Q: How did the Potency turn out when `CCOC(=O)c1cc(-c2ccc(C)cc2)n(CCC(=O)Nc2nc3c(C)cccc3s2)c1C` was run?
A: Its Potency is inconclusive: 11.2 µM [inhibitor, partial curve].

Q: For `COc1cccc(NC(=O)CSc2nnc(COc3ccc(Cl)cc3)o2)c1`, which “activity, negative = inhibition” value is on record?
A: Its value is inactive: -15.3%.

Q: With `O=C(N=C1c2ccccc2CN1c1ccc(F)cc1)c1ccc(Cl)nc1` as the compound, how does the Potency read?
A: The Potency was active: 22.4 µM.

Q: `CCCc1cc(C(=O)N(C)CC(=O)Nc2ccc(OCC)c(OCC)c2)sc1C` was tested. Which Potency did it give?
A: The Potency was inconclusive: 89.1 µM [inhibitor, single point].

Q: Which Potency does the source give for `CCOC(=O)/C(N=Nc1ccc2c(c1)OCO2)=C(\C)O` here?
A: Its Potency is inconclusive: 50.1 µM [inhibitor, partial curve].

Q: How did the Potency turn out when `Cc1ccc(-n2nc3ccc(NC(=O)c4oc5ccc(C)cc5c4C)cc3n2)cc1` was run?
A: Its Potency is inconclusive: 25.1 µM [inhibitor, single point].

Q: Which Potency does the source give for `O=P(O)(O)OP(=O)(O)O` here?
A: The Potency was inconclusive: 22.4 µM [inhibitor, single point].

Q: For `O=c1c2c(-c3ccccc3)csc2ncn1/N=C/c1cccc([N+](=O)[O-])c1O`, which Potency is on record?
A: Its Potency is active: 39.8 µM.

Q: For `O=C/C(=C\Nc1ccc(Cl)cn1)c1nc2ccccc2o1`, which Potency is on record?
A: The Potency was inconclusive: 39.8 µM [inhibitor, single point].

Q: `CCc1ccc(/C=C(/C#N)C(N)=S)s1` was tested. Which Potency did it give?
A: The Potency was inconclusive: 89.1 µM [inhibitor, single point].

Q: Which Potency does the source give for `O=C(Cc1ccccc1)N/N=C/c1cc(Br)c(Br)o1` here?
A: The Potency was inconclusive: 89.1 µM [inhibitor, single point].

Q: With `CCCN1C=CC(=C/C=C(\C#N)C(=O)OCC)C=C1` as the compound, how does the Potency read?
A: The Potency was inconclusive: 12.6 µM [inhibitor, partial curve, poor fit].

Q: `COC(=O)CSc1nc2c(c(=O)n(C)c(=O)n2C)n1CCC(C)C` was tested. Which activity, negative = inhibition did it give?
A: The activity, negative = inhibition was inconclusive: -98.5% [inhibitor].

Q: `COc1cc(OC)nc(-n2ncc(Br)c(Br)c2=O)n1` was tested. Which Potency did it give?
A: The Potency was inconclusive: 100 µM [inhibitor, single point].

Q: How did the activity, negative = inhibition turn out when `COc1ccccc1Nc1nc(-c2cccc([N+](=O)[O-])c2)cs1` was run?
A: The activity, negative = inhibition was inconclusive: -74.2% [inhibitor] [at 12.7 µM].

Q: Which Potency does the source give for `COc1ccc(C2C=C(c3ccc(Cl)cc3)Nc3nc(NC(C)=O)nn32)cc1` (stereo not drawn) here?
A: Its Potency is inconclusive: 8.91 µM [inhibitor, single point].

Q: How did the Potency turn out when `CCN(C(=O)Cn1ncc2c(=O)oc3ccc(C)cc3c21)c1cc(OC)ccc1OC` was run?
A: Its Potency is inconclusive: 35.5 µM [inhibitor, partial curve, poor fit].

Q: `CC1CN(c2ccc([N+](=O)[O-])c(NCCOc3ccc(Cl)cc3)c2)CC(C)N1` (stereo not drawn) was tested. Which Potency did it give?
A: Its Potency is active: 44.7 µM.

Q: With `Cn1[nH]c(-c2ccccc2)c(/C=N/O)c1=O` as the compound, how does the Potency read?
A: Its Potency is inconclusive: 39.8 µM [inhibitor, full curve].

Q: How did the Potency turn out when `Cc1ccc(NC(=O)CN(C)C(=O)COC(=O)c2nccnc2N)cc1` was run?
A: The Potency was inconclusive: 0.708 µM [inhibitor, full curve, poor fit].

Q: With `CCc1ccc(/C=C/C(=O)C2C(=O)c3ccccc3C2=O)cc1` as the compound, how does the Potency read?
A: Its Potency is inconclusive: 3.55 µM [inhibitor, partial curve, poor fit].

Q: Which Potency does the source give for `S=C(NCc1ccccn1)Nc1ccc(Br)cc1Cl` here?
A: Its Potency is inconclusive: 50.1 µM [inhibitor, partial curve, poor fit].

Q: For `COc1ccccc1CNC(=O)C1CCN(S(=O)(=O)c2c(C)noc2/C=C/c2c(C)cc(C)cc2C)CC1`, which “activity, negative = inhibition” value is on record?
A: The value was inactive: -4.5%.

Q: With `C/C(=N\Nc1ccc(S(=O)(=O)N2CCCCC2)cn1)c1ccc(O)cc1` as the compound, how does the Potency read?
A: Its Potency is inconclusive: 2.82 µM [inhibitor, partial curve, poor fit].

Q: `CCC(c1nc2ccccc2c(=O)n1CCCn1ccnc1)N1C(=O)c2ccccc2C1=O` (stereo not drawn) was tested. Which Potency did it give?
A: The Potency was inconclusive: 44.7 µM [inhibitor, partial curve, poor fit].

Q: With `CC(c1ccon1)N(C)Cc1cn(C)nc1-c1cccc(Cl)c1` (stereo not drawn) as the compound, how does the Potency read?
A: The Potency was inconclusive: 15.8 µM [inhibitor, partial curve].

Q: How did the Potency turn out when `O=C(C1=C(O)C(=O)N(CCN2CCOCC2)C1c1cccc([N+](=O)[O-])c1)c1cccs1` (stereo not drawn) was run?
A: The Potency was inconclusive: 89.1 µM [inhibitor, single point].

Q: How did the Potency turn out when `O=C(CCCOc1ccc(Cl)cc1Cl)NN1CCOCC1` was run?
A: Its Potency is inconclusive: 89.1 µM [inhibitor, single point].

Q: Which “activity, negative = inhibition” value does the source give for `CCCN1C(=O)C(O)(CC(=O)c2ccc(OC)c(OC)c2)c2ccccc21` (stereo not drawn) here?
A: Its value is inactive: 10.1%.
